# In PubChem BioAssay AID1347120 (National Center for Advancing Translational Sciences (NCATS), 2019):
# The campaign covered roughly 390,000 compounds. About 930 (0.24%) were called active. This list was built around the results that the source calls inconclusive (neither active nor inactive); the mix of calls is not that of the screen. The call rests on the fitted dose curve; in most records, active means well fitted activation curve with a large enough effect; inconclusive means small, poorly fitted or top-dose-only effect; inactive means no such curve, though single readings can be large or run the other way. Potencies of inconclusive entries are doubtful fits and often do not repeat.
# Test: qHTS for Suppressors of FUS Proteinopathy: Primary screen using FUS-linked yeast assay; further: nearly all actives have a fitted effect of over 55% in size;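 on growth rescue (activation): plate controls were DMSO vehicle for no effect and reference control for full effect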
# Settings: S. cerevisiae FUS-expressing, OD600, 24 h; Potency: growth rescue; growth rescue (activation): at 76.6 µM (top of the series)
# Method in brief: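 Galactose (2%) drives FUS expression in yeast precultured in raffinose; seeding density OD 0.005. Test compounds incubated 24hr at 30C and 99% humidity before absorbance at 600 nm was measured.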
# Potency means the concentration at half of the fitted maximal effect; tags describe the fitted curve by direction and shape.
SMILES,Potency,growth rescue (activation)
Cc1ccc(NC(=O)Cc2c[nH]c3ccccc23)cc1S(=O)(=O)N1CCCCCC1,"inconclusive: 31.6 µM [activator, single point]",
COc1ccc(C(=O)Nc2ccc(-c3cc(C(F)(F)F)nn3-c3ccccc3)cc2)cc1OC,"inconclusive: 35.5 µM [activator, single point]",
COC(=O)c1cccc(N2CCCC2=O)c1,,inactive: -23.6%
Cc1noc(C)c1C(=O)N1CCCC(C)(C(=O)NS(=O)(=O)C2CC2)C1 (stereo not given),,inactive: -22.8%
C=CCNC(=O)CC(=O)N/N=C/c1ccc(C(=O)OC)cc1,"inconclusive: 7.08 µM [activator, single point]",
Nc1c(C(=O)Nc2ccc(Cl)cc2F)sc2nc(-c3cccs3)ccc12,"inconclusive: 25.1 µM [activator, partial curve, poor fit]",
c1coc(C2Nc3ccccc3-c3nc4ccccc4n32)c1 (stereo not given),,inactive: 20.9%
COc1ccc(CN2CCN(C(=O)c3cccc4ccccc34)CC2)cc1OC,,inactive: 0.491%
Fc1ccc(CNc2cc(-c3ccccc3)nc3nncn23)cc1,"inconclusive: 25.1 µM [activator, partial curve]",
COc1cccc(Nc2nc(-c3sc(NC(=O)c4ccco4)nc3C)cs2)c1,"inconclusive: 44.7 µM [activator, single point]",
COc1ccc(/C(O)=C/C(=O)C(=O)NNC(=O)c2ccccc2)cc1,,inactive: 32.1%
CC1(C)COC(c2cccn2Cc2ccc(F)cc2Cl)=N1,"inconclusive: 56.2 µM [activator, single point]",
CCc1ccc(-c2cc(C)no2)cc1S(=O)(=O)N1CCN(c2ccc(C(C)=O)cc2)CC1,"inconclusive: 10 µM [activator, partial curve]",
Clc1ccc(-c2nnc(CSc3nnc(-c4cccs4)n3Cc3ccccc3)o2)cc1,"inconclusive: 20 µM [activator, single point]",
COc1ccc(S(=O)(=O)c2ccc(OC)c(OC)c2)cc1OC,"inconclusive: 14.1 µM [activator, partial curve]",
CCN1C(=S)N[C@@H](c2cccc(F)c2)C(C(=O)OC)=C1C,,inactive: -7.45%
CCC(C)(C)c1ccc(OCCCC[n+]2cccc(C)c2C)c(C(C)(C)CC)c1,"inconclusive: 31.6 µM [activator, single point]",
CCn1c(SCC(=O)Nc2ccc(N(C)C)cc2)nnc1-c1cccc(C)c1,"inconclusive: 7.94 µM [activator, partial curve, poor fit]",
O=C(CCCc1ccccc1)c1ccccc1,,inactive: -6.45%
O=C(COC(=O)c1cccc(NS(=O)(=O)c2ccc(F)c(F)c2)c1)NC(=O)NC1CCCCC1,"inconclusive: 44.7 µM [activator, single point]",
CCOc1ccc(CNC(=O)CCCn2ccc3cc(S(=O)(=O)N4CCCC4)ccc32)cc1,"inconclusive: 20 µM [activator, partial curve, poor fit]",
COc1ccc(C[C@H]2CN3C(=NC[C@H]3Cc3ccccc3)N2CCNC(=O)c2ccc(C)c(Br)c2)cc1,"inconclusive: 22.4 µM [activator, partial curve]",

SMILES,Potency,growth rescue (activation)
COc1ccc(C(O)c2nc(-c3cccc(C(F)(F)F)c3)cs2)cc1 (stereo not given),"inconclusive: 50.1 µM [activator, single point]",
O=C(CCCn1c(=O)c2ccccc2n(CC(=O)Nc2ccc(F)cc2F)c1=O)NCc1ccccc1Cl,"inconclusive: 50.1 µM [activator, single point]",
Cc1ccc(-c2nn(-c3ccccc3)cc2C(=O)Nc2cccc(S(=O)(=O)NC3=NCCC3)c2)cc1,"inconclusive: 35.5 µM [activator, single point]",
COc1ccc(NC(=O)Nc2nc(C(N)Cc3ccc(C(F)(F)F)cc3)cs2)cc1 (stereo not given),"inconclusive: 28.2 µM [activator, single point]",
COC(=O)[C@]12CCCCC=C1N(CCC1=CCCCC1)C(=O)[C@H](CC(=O)NCc1cccc(C(F)(F)F)c1)C2,,inactive: 39.2%
COc1ccc(Cl)cc1S(=O)(=O)Nc1cccc(-c2ccc(N3CCOCC3)nn2)c1,,inactive: -38%
COc1ccc(C(=O)C[n+]2cn(C(F)F)c3ccccc32)c(F)c1,,inactive: 8.01%
COc1ccc(NC(=O)Nc2ccc3c(c2)C(=O)N([C@H](C)CO)C[C@H](C)[C@@H](CN(C)S(=O)(=O)c2ccccc2)O3)cc1,"inconclusive: 28.2 µM [activator, single point]",
CCOC(=O)N(C)C[C@@H]1OCc2ccccc2-c2c(n(C)c3ccccc23)C(=O)N([C@H](C)CO)C[C@H]1C,"inconclusive: 25.1 µM [activator, single point]",
COCc1ccc(-c2c(-c3ccc(OC)cc3)oc(=O)c3cc(OC)c(OC)cc23)cc1,"inconclusive: 20 µM [activator, partial curve]",
COc1ccc(-c2cc3ccccc3n2CC(O)CN2CCOCC2)cc1 (stereo not given),,inactive: 4.46%
COc1cccc(CNC(=O)c2c3c(nc4ccccc24)C(=O)N(C2CCCCC2)C3)c1,"inconclusive: 15.8 µM [activator, partial curve]",
N=C1SCC(=O)N1c1ccccc1Cl,,inactive: -5.8%
Cc1ccc(C(=O)N2CCC(Oc3cccnc3)CC2)c(C)c1,,inactive: -21.4%
CCc1ccc(OCC(=O)NCC(c2ccc(OC)cc2)N2CCOCC2)cc1 (stereo not given),,inactive: 12.9%
CN(Cc1ccccc1)c1nc2c(c(=O)n(C)c(=O)n2C)n1CCCc1ccccc1,"inconclusive: 28.2 µM [activator, partial curve, poor fit]",
CC1CCN(c2nc3ccc(C(=O)NCc4ccc(Cl)cc4)cc3s2)CC1,,inactive: 19.1%
COc1cc2cc(C(c3nnnn3C(C)(C)C)N3CCc4ccccc43)c(=O)[nH]c2cc1OC (stereo not given),active: 28.2 µM,
CCn1cc(C(=O)N2CCN(c3ccccc3)CC2)c(=O)c2cc(S(=O)(=O)N3CCC(C)CC3)ccc21,,inactive: 42.3%
Cc1cc(C)c2cc(CN(CCN3CCCC3)C(=O)Nc3ccc(F)cc3)c(=O)[nH]c2c1,"inconclusive: 39.8 µM [activator, partial curve, poor fit]",
NC(=O)[C@H]1CC2(CC(c3cccc(NC(=O)COc4ccc(Cl)cc4)c3)=NO2)CN1C(=O)Cc1ccc([N+](=O)[O-])cc1 (stereo not given in full),"inconclusive: 25.1 µM [activator, partial curve, poor fit]",
Cn1c(=O)c2c(nc(SCc3ccccc3F)n2C)n(C)c1=O,,inactive: 15.8%

SMILES,Potency,growth rescue (activation)
COc1ccc(C(C)(C)C)cc1NC(=O)CCCn1c(=O)oc2ccccc21,"inconclusive: 44.7 µM [activator, single point]",
CCNc1ccc(Br)cc(C(=O)/C=C/c2c(Cl)cccc2Cl)c1=O,"inconclusive: 17.8 µM [activator, partial curve, poor fit]",
Fc1ccc(/C=N/NC(=S)Nc2ccc(Cl)cc2Cl)cc1,,inactive: 5.6%
N#CCC[C@H]1CC[C@]2(CCCN(c3ccccc3)C2)O1,,inactive: -3.35%
CCOc1ccc(CCNC(=O)c2ccc3c(c2)N(Cc2cccc(Cl)c2)C(=O)c2ccccc2S3(=O)=O)cc1OCC,"inconclusive: 20 µM [activator, partial curve, poor fit]",
CCOC(=O)N1CCc2c(sc(NCc3sccc3C)c2C(=O)Nc2ccccc2OCC)C1,"inconclusive: 20 µM [activator, partial curve, poor fit]",
Cc1c(Cl)cccc1NC(=O)NCCOCCn1c(=O)oc2ccccc21,,inactive: 9.69%
COc1cccc(C2=NOC(C(=O)Nc3cccnc3Cl)C2)c1OC (stereo not given),,inactive: 0.875%
O=C(NCCc1c[nH]c2ccccc12)C(=O)NCC1OCCN1S(=O)(=O)c1ccc(Cl)cc1 (stereo not given),"inconclusive: 31.6 µM [activator, single point]",
Cc1cc(NC(=O)CN2C(=O)CSc3ccc(S(=O)(=O)N(C)C)cc32)ccc1Br,"inconclusive: 12.6 µM [activator, single point]",
COc1ccc(Cl)cc1NC(=O)CSc1cn(CC(=O)N2CCCC2)c2ccccc12,"inconclusive: 31.6 µM [activator, single point]",
COCCCNc1nc2ccccc2nc1NS(=O)(=O)c1cc(Cl)ccc1Cl,,inactive: 32%
C=CCC[C@@H](Cc1ccc(F)cc1)C(=O)OC[C@@H](Cc1c[nH]c2ccccc12)NC(=O)[C@@H](CC=C)CC(=O)NCCO,"inconclusive: 28.2 µM [activator, single point]",
CC(=O)N1CCN(c2ccc(NC(=O)C(C)Oc3ccc(Cl)cc3Cl)cc2)CC1 (stereo not given),"inconclusive: 17.8 µM [activator, single point]",
O=S(=O)(c1ccc(N2CCCC2c2nc3ccccc3s2)nc1)N1CCOCC1 (stereo not given),"inconclusive: 31.6 µM [activator, partial curve, poor fit]",
O=C1NC(=O)/C(=C/c2cccc3ccccc23)S1,,inactive: 22.1%
Oc1ccc2ccccc2c1CNc1ccc2ccccc2c1,"inconclusive: 31.6 µM [activator, single point]",
O=C(O)c1ccc(N/N=C/C2=C(N3CCOCC3)C(=C\c3ccccc3)/CC2)cc1,"inconclusive: 0.891 µM [activator, full curve, poor fit]",
Cc1ccc2c(c1)C(=O)N1[C@H]3c4cc(Cl)ccc4OC[C@@H]3[C@H](c3ccccc3)[C@]1(C)C(=O)N2,,inactive: 34.6%
COc1ccc(-n2c(Cc3cccn3C)nnc2SCC(=O)Nc2cc(Cl)ccc2OC)cc1,"inconclusive: 25.1 µM [activator, single point]",
CCOC(=O)[C@]12CCC=C1N(CCC1=CCCCC1)C(=O)[C@H](CC(=O)NCCC(C)C)C2,"inconclusive: 20 µM [activator, partial curve, poor fit]",
